Source: PMC4336329 (PLoS ONE, 2015)
Among all 310,000 compounds or so, about 14,000 (4.5%) showed an effect of 50% or more. Effects have a minus sign here. The list shows a part of the results.

Biological target: human ether-à-go-go-related gene (hERG) potassium channel (human, UniProt Q12809)
Experiment: primary screen, population patch clamp on CHO cells stably expressing hERG
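Further: peak tail current of the secondary pulse compared with the same well before compound.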

Chain of human ether-à-go-go-related gene (hERG) potassium channel (Q12809 whole entry, looked up): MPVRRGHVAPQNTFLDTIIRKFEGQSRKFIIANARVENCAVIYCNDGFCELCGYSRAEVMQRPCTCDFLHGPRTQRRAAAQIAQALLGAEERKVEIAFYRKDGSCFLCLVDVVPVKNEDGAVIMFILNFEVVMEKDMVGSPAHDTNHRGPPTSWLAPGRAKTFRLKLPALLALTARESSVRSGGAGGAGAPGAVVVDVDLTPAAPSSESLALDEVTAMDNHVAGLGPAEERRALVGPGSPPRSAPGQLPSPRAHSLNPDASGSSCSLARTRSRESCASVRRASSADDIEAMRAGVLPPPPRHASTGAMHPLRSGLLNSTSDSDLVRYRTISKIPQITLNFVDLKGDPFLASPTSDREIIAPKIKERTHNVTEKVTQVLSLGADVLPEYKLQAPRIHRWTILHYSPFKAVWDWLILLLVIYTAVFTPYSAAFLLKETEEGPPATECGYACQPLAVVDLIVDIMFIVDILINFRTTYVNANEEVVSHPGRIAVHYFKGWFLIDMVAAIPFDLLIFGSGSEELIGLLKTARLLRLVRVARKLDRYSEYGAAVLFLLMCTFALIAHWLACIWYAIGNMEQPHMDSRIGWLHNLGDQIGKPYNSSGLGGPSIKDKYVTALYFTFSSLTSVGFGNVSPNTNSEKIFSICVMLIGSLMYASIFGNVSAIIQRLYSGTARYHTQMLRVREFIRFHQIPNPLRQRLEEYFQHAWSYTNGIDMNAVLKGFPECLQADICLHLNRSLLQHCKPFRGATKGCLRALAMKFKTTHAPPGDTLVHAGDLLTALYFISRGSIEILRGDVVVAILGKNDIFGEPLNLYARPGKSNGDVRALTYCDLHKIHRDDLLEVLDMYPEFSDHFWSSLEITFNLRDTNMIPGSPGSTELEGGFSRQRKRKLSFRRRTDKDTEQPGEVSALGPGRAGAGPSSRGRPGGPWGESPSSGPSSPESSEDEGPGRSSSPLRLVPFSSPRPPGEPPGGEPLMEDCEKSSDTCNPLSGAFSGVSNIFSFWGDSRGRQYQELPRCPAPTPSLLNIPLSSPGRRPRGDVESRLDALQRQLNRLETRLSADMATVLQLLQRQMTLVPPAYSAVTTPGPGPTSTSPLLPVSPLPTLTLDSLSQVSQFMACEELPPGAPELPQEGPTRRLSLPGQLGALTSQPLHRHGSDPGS

Going from Cc1ccc(SCCC(=O)Nc2cccc(N(C)S(C)(=O)=O)c2)cc1 to CC(=O)c1cccc(NC(=O)C2CCCN(S(=O)(=O)c3ccc(F)cc3)C2)c1 (centres unmarked), the “hERG current change (%, negative = inhibition) at 10uM” value rises from -16.3% to -3.5%.

First: COc1ccc(CCNC(=O)Cc2c(Cl)cccc2Cl)cc1
Second: COc1ccc(CCC(=O)NC(C)C2CCCO2)cc1 (centres unmarked)
The “hERG current change (%, negative = inhibition) at 10uM” value of the first is higher: 45% for the first, 18.3% for the second.

First: CCc1nn(CC(=O)N2CCN(CC)CC2)c(=O)c2cc3sccc3n12
Second: Cc1nn(CC(=O)NCCN2CCCCC2C)c(=O)c2cc(-c3ccccc3)nn12 (centres unmarked)
The “hERG current change (%, negative = inhibition) at 10uM” value of the first is higher: -0.134% for the first, -48.4% for the second.

First: CCC[C@@H]1CCCO[C@@](C(=O)NCc2ccccn2)(C(F)(F)F)C1
Second: CCn1cc(CN2CCCC(CNS(=O)(=O)c3cccc4cccnc34)C2)cn1 (centres unmarked)
The “hERG current change (%, negative = inhibition) at 10uM” value of the first is lower: -1.97% for the first, 17.8% for the second.

Compared with COc1cc(C(=O)NCc2ccc(OCCN(C)C)cc2)cc(OC)c1OC.Cl, Cc1ccc(S(=O)(=O)N(C)C)cc1NC(=O)c1cc(=O)c2ccccc2o1 is lower in “hERG current change (%, negative = inhibition) at 10uM” value: 8.72% for the first, 2.36% for the second.

Compared with O=C(NC(=S)Nc1c(Cl)ccc2nsnc12)c1ccccc1F, Cc1c(NC(=O)c2cc(-c3ccccc3)on2)c(=O)n(-c2ccccc2)n1C is lower in “hERG current change (%, negative = inhibition) at 10uM” value: 21.2% for the first, -27.7% for the second.

Going from Cl.OC(c1ccccc1)C(CN1CCOCC1)c1ccccc1 (centres unmarked) to Cc1nc2ccccc2n1CCN1CCOCC1.Cl, the “hERG current change (%, negative = inhibition) at 10uM” value rises from -6.03% to 23.3%.

Compared with Cl.Fc1ccccc1C(c1nnnn1C1CCCC1)N1CCN(Cc2ccccc2)CC1 (centres unmarked), COc1ccc2cc(-c3[nH]ncc3CN3CCCN(c4ccccc4)CC3)ccc2c1 is higher in “hERG current change (%, negative = inhibition) at 10uM” value: -18.9% for the first, -18.5% for the second.

First: CCn1ncc(S(=O)(=O)Nc2cccnc2)c1C
Second: CN(CC(=O)Nc1cccc(F)c1)C(=O)/C=C/c1cn(Cc2ccccc2)nc1-c1cccnc1
The “hERG current change (%, negative = inhibition) at 10uM” value of the first is higher: 5.02% for the first, -48.8% for the second.

Compared with COc1ccc(Cl)cc1NC(=O)Cn1nc(-c2ccc(C)cc2)n(C)c1=S, COc1ccccc1-n1c(C)nc2cc(C(=O)O)ccc21 is higher in “hERG current change (%, negative = inhibition) at 10uM” value: 1.98% for the first, 12.7% for the second.

Compared with COc1ccc(-c2cn[nH]c2-c2ccc(OC)cc2O)cc1, CCOc1ccc(N=Nc2ccc(O)c3ncccc23)cc1 is higher in “hERG current change (%, negative = inhibition) at 10uM” value: -8% for the first, 18% for the second.

Going from Cc1cc(=O)oc2cc(OCCC[n+]3ccccc3)ccc12.[Br-] to O=C(O)c1oc2ccccc2c1-n1cccc1, the “hERG current change (%, negative = inhibition) at 10uM” value rises from 1.4% to 27%.

Compared with C[C@H](NC(=O)OC(C)(C)C)c1nnc(SCC(=O)Nc2ccc(Br)cc2)o1, O=C(CNc1ccc(Br)cc1)NNC1=NCCC1 is higher in “hERG current change (%, negative = inhibition) at 10uM” value: -11.2% for the first, 1.72% for the second.

First: O=C(O)CCS(=O)(=O)Cc1ccccc1F
Second: O=C(NCc1ccccc1)NC(=O)c1ccncc1
The “hERG current change (%, negative = inhibition) at 10uM” value of the first is higher: 17.7% for the first, 0.815% for the second.

Going from Cc1c(N=Cc2ccc(O)c(Br)c2)cccc1[N+](=O)[O-] to Cc1ccc([N+](=O)[O-])c(OCCN2CCC(Cc3ccccc3)CC2)c1.O=C(O)C(=O)O, the “hERG current change (%, negative = inhibition) at 10uM” value falls from 0.627% to -73%.

Going from N#C/C(=C(/O)COC(=O)c1ccccc1O)c1nc2ccccc2s1 to CC(NC(=O)CSc1nc2ccc(N)cc2s1)c1ccccc1 (centres unmarked), the “hERG current change (%, negative = inhibition) at 10uM” value rises from 15% to 32%.

First: Cc1cc(C(F)F)n2nc(C(=O)Nc3sc4c(c3C(N)=O)CCC4)nc2n1
Second: Cc1ccc(C(=O)OCC(=O)Nc2sc3c(c2C#N)CCCCC3)cc1NC(=O)c1ccco1
The “hERG current change (%, negative = inhibition) at 10uM” value of the first is lower: -60.9% for the first, -8.72% for the second.

Going from O=C1OCC/C1=C\c1ccccc1 to S=c1[nH]nc(/C=C/c2ccccc2)o1, the “hERG current change (%, negative = inhibition) at 10uM” value rises from 1.96% to 24.4%.

Going from O=C(COCc1cc(-c2ccc3c(c2)OCO3)on1)N1CCN(c2ccc(F)cc2)CC1 to O=C(Cn1cnc2c(cnn2-c2ccc(F)cc2)c1=O)N1CCN(c2ccccc2F)CC1, the “hERG current change (%, negative = inhibition) at 10uM” value falls from -3.9% to -22.3%.

Going from Cc1c(NC(=O)C(C)n2cc([N+](=O)[O-])cn2)c(=O)n(-c2ccccc2)n1C (centres unmarked) to Cc1c(NC(=O)C(C)OC(=O)c2ncc(Cl)c(Cl)c2Cl)c(=O)n(-c2ccccc2)n1C (centres unmarked), the “hERG current change (%, negative = inhibition) at 10uM” value falls from 19.4% to 2.05%.

Compared with O=C(Nc1ccccc1Cl)ON=C1c2ccccc2-c2ccccc21, CC(C)n1c(O)c(N=NC(=O)c2ccccc2NS(=O)(=O)c2cccs2)c2ccccc21 is higher in “hERG current change (%, negative = inhibition) at 10uM” value: -4.49% for the first, 4.34% for the second.

First: O=C(Cn1c(=O)oc2ccccc21)NCc1ccco1
Second: CC(=O)Nc1ccc(S(=O)(=O)N(Cc2ccco2)Cc2cc3ccccc3[nH]c2=O)cc1
The “hERG current change (%, negative = inhibition) at 10uM” value of the first is lower: 21.4% for the first, 24.8% for the second.

Compared with Cc1cccc(OCC(=O)Nc2ccc3c(c2)nc2n3CCOC2)c1, COc1ccc(C(=O)Nc2ccc(S(=O)(=O)N3CCOCC3)cc2)cc1 is higher in “hERG current change (%, negative = inhibition) at 10uM” value: -32.6% for the first, -3.15% for the second.

Compared with O=C(c1[nH]ncc1[N+](=O)[O-])N1CCOCC1, Nc1nc(C2CCOCC2)cs1 is lower in “hERG current change (%, negative = inhibition) at 10uM” value: 16.4% for the first, 8.78% for the second.

Going from COc1ccc(N(CC(O)Cn2cnc3ccccc32)S(=O)(=O)c2ccc(C)cc2)cc1 (centres unmarked) to COc1ccc(N2CCN(C(=O)c3ccc(S(=O)(=O)NCc4ccco4)cc3)CC2)cc1, the “hERG current change (%, negative = inhibition) at 10uM” value rises from -58% to -54.7%.

Going from Cc1cc(C)cc(NC(=O)[C@H](NC(=O)[C@@H]2Cc3ccccc3CN2)c2ccccc2)c1 to Cc1cc(C)cc(NC(=O)CCn2c(=O)c3cccn3c3ccccc32)c1, the “hERG current change (%, negative = inhibition) at 10uM” value falls from -0.0454% to -1.37%.

Going from Cc1cc(SC(C)C(=O)Nc2c(C)n(C)n(-c3ccccc3)c2=O)nc2ccccc12 (centres unmarked) to COc1ccccc1CSc1nc2ccccc2[nH]1, the “hERG current change (%, negative = inhibition) at 10uM” value falls from -6.76% to -12.5%.

First: CC(/C=C1\SC(=S)N(NS(=O)(=O)c2ccc(C)cc2)C1=O)=C\c1ccccc1
Second: CC(C)N(C(=O)COC(=O)c1ccc(Cl)s1)c1ccccc1
The “hERG current change (%, negative = inhibition) at 10uM” value of the first is lower: -5.35% for the first, 0.733% for the second.

First: Cc1[nH]c(=S)[nH]c(=O)c1CCC1OCCO1
Second: O=C(COC(=O)c1cc(Br)ccc1O)NCC1CCCO1 (centres unmarked)
The “hERG current change (%, negative = inhibition) at 10uM” value of the first is lower: -3.78% for the first, 4.13% for the second.

Compared with CCOc1ccc(C(=O)Nc2ccc(NC(=O)c3ccco3)c(Cl)c2)cc1Br, CC(=O)c1cccc(NC(=O)c2onc(C)c2Cl)c1 is lower in “hERG current change (%, negative = inhibition) at 10uM” value: 9.83% for the first, 5.69% for the second.

Compared with CC(=O)Nc1ccc(Br)cc1C(=O)C(=O)O, CCN(CC)C(=O)Cn1cc(C(=O)C(=O)NCCCN2CCOCC2)c2ccccc21 is higher in “hERG current change (%, negative = inhibition) at 10uM” value: -2.93% for the first, 2.7% for the second.

Going from N#Cc1cc(-c2ccccc2)nc(NN)n1 to N#Cc1ccccc1CSc1nnc(-c2ccncc2)o1, the “hERG current change (%, negative = inhibition) at 10uM” value falls from -5.6% to -9.63%.

First: CCc1ccc(NC(=S)Nc2ccc3[nH]c(=O)[nH]c3c2)cc1
Second: Cc1noc(C)c1COc1ccccc1C(=O)N(C)CC(=O)Nc1ccc(F)cc1
The “hERG current change (%, negative = inhibition) at 10uM” value of the first is higher: 11.3% for the first, -14.8% for the second.

First: COC(=O)/C=c1\sc2n(c1=O)C(C)=CC(C)(C)N=2
Second: CCOC(=O)C1=C(COC(=O)c2ccc(OC(C)C)cc2)NC(=O)NC1C (centres unmarked)
The “hERG current change (%, negative = inhibition) at 10uM” value of the first is lower: 6.87% for the first, 9.34% for the second.

Going from Cc1ccc(C(=O)Nc2nnc(C3CCCCC3)s2)o1 to COc1ccc(NC(=O)CSc2nnc(C3CCCCC3)n2N)cc1, the “hERG current change (%, negative = inhibition) at 10uM” value falls from 8.68% to 1.26%.

First: COc1ccc(CC(=O)N2CCN(c3ccccn3)CC2)cc1
Second: COc1ccc(N2CCN(CCNC(=O)CCCn3c(=O)[nH]c4cc(Cl)ccc4c3=O)CC2)cc1
The “hERG current change (%, negative = inhibition) at 10uM” value of the first is higher: 7.79% for the first, -48.5% for the second.

Going from Cn1nccc1C(=O)N1CCCC(C(=O)c2cccc3ccccc23)C1 (centres unmarked) to Cc1cc(C)n(C2CCCCC2OC(=O)c2ccccc2)n1 (centres unmarked), the “hERG current change (%, negative = inhibition) at 10uM” value rises from -9.7% to 15%.

Compared with Cc1cc(C)n(-c2nc3c(c(=O)[nH]c(=O)n3C)n2C)n1, Cc1cc(C)n2nc(SCC(=O)N(C)c3c(N)n(Cc4ccccc4)c(=O)[nH]c3=O)nc2n1 is higher in “hERG current change (%, negative = inhibition) at 10uM” value: 10.1% for the first, 28.1% for the second.

First: COc1ccc(S(=O)(=O)N2CCCCCC2)cc1C(=O)N(C)CC(=O)Nc1ccc(F)cc1
Second: CN(C)S(=O)(=O)c1ccc(N2CCCC2)c(C(=O)Nc2nc3ccc(F)cc3s2)c1
The “hERG current change (%, negative = inhibition) at 10uM” value of the first is higher: -0.16% for the first, -37.1% for the second.

Going from CN(CCCNC(=O)C1CCN(S(=O)(=O)N2CCC3(CC2)OCCO3)CC1)Cc1ccccc1 to CCOCCCNC(=O)C1CCC(CNS(=O)(=O)c2cccc3nsnc23)CC1 (centres unmarked), the “hERG current change (%, negative = inhibition) at 10uM” value falls from 2.31% to -19.1%.

First: COCCOC(=O)C1=C(C)NC2=C(C(=O)CCC2)C1c1cc2c(cc1Br)OCO2 (centres unmarked)
Second: COC(=O)Cn1c(=O)c2c(nc3n2CC(C)CN3Cc2ccccc2)n(C)c1=O (centres unmarked)
The “hERG current change (%, negative = inhibition) at 10uM” value of the first is higher: -16.6% for the first, -38.1% for the second.

Compared with CN(C/C=C/c1ccccc1)C1CCCCC1, CC(C)(C)c1ccccc1OCCCCN1CCCC1 is higher in “hERG current change (%, negative = inhibition) at 10uM” value: -21.7% for the first, -13.8% for the second.

Going from FC(F)(F)c1ccc2nnc(-c3c(Cl)cccc3Cl)n2c1 to COC(=O)C(C)Sc1nc2c(cnn2-c2ccc(F)cc2)c(=O)[nH]1 (centres unmarked), the “hERG current change (%, negative = inhibition) at 10uM” value rises from -4.48% to 13.7%.

Compared with Nc1c(Cl)cc(-c2csc(N3CCCC3c3nc4cc(Cl)c(Cl)cc4n3CCOCCO)n2)cc1Cl (centres unmarked), Cc1nc2ccc(NC(=O)N3CCCCC3)cc2s1 is higher in “hERG current change (%, negative = inhibition) at 10uM” value: -0.601% for the first, 0.154% for the second.

In the case of CC(NC(=O)c1ccco1)C(c1cccs1)N1CCOCC1 (centres unmarked), the “hERG current change (%, negative = inhibition) at 10uM” value is reported as 10.9%.
